# The supplement of paper PMC10126150
# Values marked as one replicate rest on one cluster of the flow cell; about a third of the high ones do not repeat.
# System: ATP
# Experiment: switch fluorescence ratio, 500 uM ATP over buffer (Cy3 cluster intensity, sum of 5 cycles each) (fold (ratio)); higher = stronger signal-on switching upon ATP binding; sequences stand for … in TCGTCGGCAGCGTCAGATGTGTATAAGAGACAGTTTTTTTTTTTTTTTTTTTTTTTTT…TC
# Details: aptamer strand: ATP DNA aptamer (quencher-CACCTGGGGGAGTATTGCGGAGGAAGG + anchor), 100 nM annealed; ATP concentration: 500 uM; one replicate
# Method in brief: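 Values give the fluorescence ratio for each switch-domain sequence, averaged from per-cluster ratios of summed target-cycle to summed buffer-cycle Cy3 intensity. The Cy3-labelled switching-strand clusters sat on a modified Illumina MiSeq flow-cell, were annealed to 100 nM quencher-labelled ATP aptamer, and were imaged in selection buffer, then after 15 min with 500 uM ATP at 22 °C. Five cycles ran with NaOH stripping and re-annealing between them, and clusters outside 100-1000 RFU were excluded.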
# 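Also: ATP exposure 15 min at 22 °C before imaging.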
row,Sequence,switch fluorescence ratio
1,TCAAGAACGA,1.01
2,CCCGGCATTA,3.31
3,GTTCTTAAAC,0.987
4,GAATTATCT,1.01
5,CTGAGCTAA,1.46
6,CAGGTAGTCG,0.966
7,CTCGTTAACA,1.02
8,AGAGAGCGGG,1
9,TGAATCCGCT,1.41
10,AGCGATATGC,1.09
11,TTCGCGGCGG,1.01
12,TCACTCAGAT,1.01
13,TGGGAACTGC,0.992
14,GAGTGCTGCG,1
15,CGACGAGACT,1.4
16,TCAGCGCCTG,0.986
17,ATAGCCTAGT,0.982
18,CTAGATCAGA,1
19,TCTTGTACGG,1.03
20,TGTTCCGAGC,1.48
21,ATATTTAAAT,1.14
22,GCGAAGTATG,0.964
23,ATTATTCACT,1.01
24,CACGTAGTCC,1.06
25,GTTACAGTCG,0.972
26,TGCCCAGGTG,1.75

row,Sequence,switch fluorescence ratio
1,AGGGAGTCGG,1
2,TACTCAACGG,1.3
3,AGCCTGCAG,1.02
4,TTATTCCGAT,1.03
5,AACTGAAGGC,1.1
6,AATATATCC,0.992
7,TTCGGATACG,0.987
8,TTACGTTTCG,1.03
9,CTATCCATT,0.996
10,TGGCGTCACG,0.999
11,TACCGCGCT,1.09
12,TTGTGCTGCT,1.01
13,AAATACTAC,1.33
14,TAAGAATAAG,1.07
15,ATTGTTCGGG,1
16,GCATTTGGCG,1.02
17,TAGAACACGC,1.04
18,TGAAAGTGCC,1.01
19,GGGACGGGAT,0.937
20,GGCCGAGGTA,1.06
21,CGATGGATG,1.17
22,CAATGCCGGA,1.04
23,GCCTGTCATG,0.952
24,AAGTTAAAAC,0.994
25,ATAGGATGTC,0.884
26,TTGACCCGGA,0.985

row,Sequence,switch fluorescence ratio
1,CCTGAGCCGG,1.02
2,GTCCTCATGT,1.03
3,CATTGTCTGG,0.992
4,GCATGGGGTC,1
5,CTTATAGGTT,1.01
6,TATTTATTCA,1.01
7,ACACGCAATT,2.43
8,TCAAATTGTA,1.05
9,TTACCGAATA,1.03
10,ACAACTGGAT,0.929
11,CCTCTTCGGC,1.05
12,CTACTTTAAT,0.961
13,ACTCCTGTAT,1.03
14,ACTAGTAATC,1.01
15,GACCGTGACC,1.22
16,GAAAGCCTAG,0.996
17,AGAATTCTCG,0.978
18,ATCGAGGGAT,0.99
19,CGGGACCCCT,0.997
20,AGATAACCTG,1.03
21,ATGCAGTGCT,1.03
22,TATTTTAAGG,0.983
23,CTACGGATCT,1.06
24,AATGGCATGC,1.02
25,AAATTCCAGC,1.03
26,CGGTATAACC,1.02

row,Sequence,switch fluorescence ratio
1,TAACAATATG,0.984
2,AATTGGTA,0.983
3,ACTTGGAACA,1.04
4,CTGCAAAGGT,1.08
5,TTGGTGCGAA,0.968
6,TAGAGTGGGA,1.05
7,GCATGAAATC,1.06
8,ATAAGTCAGT,0.96
9,TTAAACTTGT,0.986
10,TCAAAGGC,1.01
11,ACATAGCCGT,1
12,ACTTTGGTTG,0.994
13,TCGTGGCCTG,1.02
14,ACATTAACGA,1.16
15,GCTAATAGCG,0.999
16,GATTGAACCA,0.982
17,TCATAATCAC,1.14
18,AACAATAATA,0.989
19,AAAGGGATTC,1.01
20,ACTGGTAGGG,0.997
21,GTTTCAGTTG,0.982
22,GACATATATA,1.01
23,ACGAGATAAT,1.07
24,ACTGTCGTTT,0.996
25,CACTGCGGTT,1.05
26,ACGAAGGTTG,0.992

row,Sequence,switch fluorescence ratio
1,AGCGAAGCTA,0.955
2,TGTCGGTACA,1.05
3,AGATAGCAGC,1.03
4,CCGAGGGTGT,1.05
5,TGACAAAGTA,0.987
6,CGGCCATATG,1.02
7,ATTAGTGCAC,0.999
8,CGCACCGAGG,1.05
9,ACTAAGAGAA,0.98
10,GAACTTCCAT,1
11,GGGTTGTACG,1.08
12,AGTTGACAAC,0.937
13,TGAGTTGGGC,1.03
14,CCGGTAGAAA,1.05
15,AGAGCCTCGG,0.942
16,AATAGGTAAT,0.97
17,GCAGGAGATC,0.98
18,GGTCAATGGG,0.987
19,TTCTGATTGG,0.978
20,AAAGCACTGA,1.11
21,CTTCAGGCTG,0.976
22,TGATTCTTC,0.96
23,CCGGAGTTTA,2.92
24,AAAAGAATCA,1.03
25,CTTACTGCCA,1.18
26,TGCAAGGTAG,1.02

row,Sequence,switch fluorescence ratio
1,GCTCTAGAGT,1.01
2,TAGTGTAATG,1.02
3,TAATAGGGTC,0.978
4,TCGACTCGAA,1.03
5,AACCTACTCA,1.32
6,CACAAGCGTC,1.06
7,TATGGTCGTC,0.988
8,ACTAAGACGG,1.02
9,TTGCATACGA,3.16
10,AACCACAAT,1.1
11,GCATTTGACA,1.07
12,TAGTAAGGGT,0.982
13,CGCGAGTTG,1.04
14,GAATGATGTT,0.999
15,GTGACCGGTC,1.01
16,CAAGGTGCCG,1.05
17,TTCCCATTGT,1.27
18,AGTTCGCGTA,1.05
19,AGCGATTATG,1.03
20,GCACGGTAGG,1.08
21,TGGTGAAAGG,1.01
22,CACTCACTCG,1.13
23,CGCATGTGT,0.985
24,CCATGGTATA,0.966
25,CTCTCGCTC,2.58
26,GAATCGAGGC,0.986

row,Sequence,switch fluorescence ratio
1,TGAGAACCTC,1.02
2,AACAACGTAA,1.17
3,ACAGCCTAGT,1.06
4,TCGGCCACTT,1.04
5,AGACCTTGAG,0.992
6,TTTGCAGGCC,0.992
7,GCACTCACCG,1.28
8,GTGAATACTG,1.13
9,TTATCGCAAG,1.22
10,ACGAACGCCT,1.59
11,AGCGAGCCCG,0.992
12,GTATGGCAAA,0.976
13,AACAGGCATA,0.999
14,AGCGAAAAAT,1.1
15,AGAATGATAT,1.01
16,TGATAAGACA,1.03
17,CTATTCCGAC,1.55
18,TAGTCCATTT,0.972
19,CATTCGTCTG,1.06
20,CAAAGCCCGT,1.03
21,TTCAGAAGTT,1.01
22,TAACTTTGTG,1.01
23,TCGATCTTGA,1.01
24,AGTGATTCGG,0.971
25,ATCGAGTTCA,0.93
26,ATAGTAAGGG,0.934

row,Sequence,switch fluorescence ratio
1,GTGTCTGACA,1.01
2,AGTGCCCCT,1.01
3,GGTTTTATTA,1.03
4,CTGGCTATAT,1.1
5,TCACATTAGC,1.07
6,GACTCAGCCA,1.55
7,AGGTAACGGC,1.01
8,GACACCCGTA,0.994
9,AATTTCCACT,0.996
10,CAGGGCAGAC,1.51
11,GCATTATGGT,1.02
12,CTACTCTTA,1.06
13,CCTCAAGAGT,2.51
14,TCATATCAGT,0.969
15,GATATCGGG,1
16,GAAATAACGT,1.02
17,TGGTTGGGT,1.03
18,ATTTGGCGTC,1
19,CGGATCAAAA,0.973
